Measured values reported in the antibiotic and cytotoxicity screens of Wong et al. (2023).
Some of the results follow.

Test system: HepG2
Experiment: cytotoxicity call (relative viability < 0.9)
Conditions: 10 µM

Row | SMILES | cytotoxicity call
1 | C[C@@H]1CN([C@@H](C)CO)C(=O)c2cc(NC(=O)Cn3cnnn3)ccc2O[C@H]1CN(C)S(=O)(=O)c1cn(C)cn1 | inactive
2 | Cc1noc(C)c1NC(=O)Nc1ccc2c(c1)C(=O)N([C@@H](C)CO)C[C@H](C)[C@@H](CN(C)C(=O)Nc1ccc(C(F)(F)F)cc1)O2 | inactive
3 | C[C@H](CO)N1C[C@H](C)[C@H](CN(C)C(=O)Nc2cccc3ccccc23)Oc2ccc(NS(=O)(=O)c3ccc(F)cc3)cc2C1=O | inactive
4 | C[C@@H]1CCCCO[C@@H](CN(C)C(=O)Cc2ccccc2)[C@H](C)CN([C@H](C)CO)C(=O)c2cc(NS(=O)(=O)c3ccc(F)cc3)ccc2O1 | inactive
5 | C[C@@H]1CN([C@@H](C)CO)C(=O)c2cccc(NC(=O)C3CCOCC3)c2O[C@@H]1CN(C)Cc1ccc(-c2ccccc2)cc1 | inactive
6 | N[C@@H]1CCCN(c2c(/C=C3\SC(=O)NC3=O)cccc2-c2ccccc2)C1 | inactive
7 | Cc1noc(C)c1NC(=O)N(C)C[C@H]1Oc2c(NC(=O)c3cnccn3)cccc2C(=O)N([C@H](C)CO)C[C@@H]1C | inactive
8 | C[C@@H]1CN([C@H](C)CO)C(=O)c2cc(NC(=O)Cc3ccccc3)ccc2O[C@@H](C)CCCCO[C@H]1CN(C)C(=O)NC1CCCCC1 | inactive
9 | C[C@H]1CCCCO[C@H](CN(C)C(=O)NC2CCCCC2)[C@@H](C)CN([C@@H](C)CO)C(=O)c2cc(NC(=O)c3ccccc3)ccc2O1 | inactive
10 | O=C(C[C@H]1C[C@@H]2c3cc(NS(=O)(=O)c4ccc(F)cc4)ccc3O[C@@H]2[C@@H](CO)O1)NC1CCCC1 | inactive
11 | C[C@H](NC(=O)C[C@@H]1CC[C@@H](NC(=O)CN2CCOCC2)[C@H](CO)O1)c1ccccc1 | inactive
12 | O=c1[nH]c2ccsc2c(=O)n1CCO | inactive
13 | Cc1ccc(S(=O)(=O)Nc2ccc3c(c2)CC(=O)N([C@H](C)CO)C[C@H](C)[C@@H](CN(C)Cc2ccncc2)O3)cc1 | inactive
14 | C[C@H]1CN([C@@H](C)CO)C(=O)CCCn2cc(nn2)CO[C@@H]1CN(C)S(=O)(=O)c1ccccc1C#N | inactive
15 | NC(=O)CSc1nnc(Cc2cc(=O)[nH]c(=O)[nH]2)n1-c1ccccc1 | inactive
16 | COC1OC2OC3(C)CCC4C(C)CCC(C1C)C24OO3 (stereo not drawn) | inactive
17 | C[C@H](CO)N1C[C@H](C)[C@H](CN(C)S(=O)(=O)c2cn(C)cn2)Oc2ccc(N(C)C)cc2CC1=O | inactive

Row | SMILES | cytotoxicity call
18 | COC1=CC(=O)CC(C)C12Oc1c(Cl)c(OC)cc(OC)c1C2=O (stereo not drawn) | active
19 | Cn1cc(N2C[C@]3(COCCN(C(=O)C4(C#N)CC4)C3)OCC2=O)cn1 | inactive
20 | Cc1noc(C)c1S(=O)(=O)Nc1ccc2c(c1)C(=O)N([C@@H](C)CO)C[C@H](C)[C@H](CN(C)S(=O)(=O)c1ccc(Cl)cc1)O2 | inactive
21 | Cc1ccc(S(=O)(=O)Nc2ccc3c(c2)C(=O)N([C@@H](C)CO)C[C@@H](C)[C@@H](CN(C)C(=O)Nc2cccc4ccccc24)O3)cc1 | inactive
22 | O=C(O)c1cccnc1C(=O)O | inactive
23 | Cc1cccc[n+]1C | inactive
24 | C[C@H]1[C@H](NC(=O)/C(=N\OC(C)(C)C(=O)O)c2csc(N)n2)C(=O)N1S(=O)(=O)O | inactive
25 | Cc1noc(C)c1S(=O)(=O)Nc1ccc2c(c1)CC(=O)N([C@@H](C)CO)C[C@@H](C)[C@H](CN(C)Cc1ccc(C(=O)O)cc1)O2 | inactive
26 | C[C@@H]1CN([C@H](C)CO)C(=O)c2cccc(NS(=O)(=O)c3ccc(Cl)cc3)c2O[C@@H]1CN(C)S(C)(=O)=O | inactive
27 | COc1cccc(NC(=O)C[C@H]2CC[C@H]3[C@H](COc4ccc(NC(=O)C5CCOCC5)cc4C(=O)N3C)O2)c1 | inactive
28 | C[C@@H]1CN([C@H](C)CO)C(=O)c2cc(NC(=O)NC3CCCCC3)ccc2O[C@@H]1CN(C)Cc1ccc(Oc2ccccc2)cc1 | active
29 | Cc1noc(C)c1S(=O)(=O)Nc1ccc2c(c1)C(=O)N([C@@H](C)CO)C[C@@H](C)[C@@H](CN(C)S(C)(=O)=O)O2 | inactive
30 | C=C1C(=O)C(O)[C@@H]2O[C@@H]2C1=O (stereo partly drawn) | inactive
31 | C[C@@H]1CN([C@@H](C)CO)C(=O)c2cc(NS(=O)(=O)c3ccc(F)cc3)ccc2O[C@@H](C)CCCCO[C@H]1CN(C)C(=O)Nc1ccccc1 | inactive
32 | C[C@H]1CN([C@@H](C)CO)C(=O)Cc2cc(NS(=O)(=O)c3ccccc3)ccc2O[C@H]1CN(C)S(=O)(=O)c1cccs1 | inactive
33 | COCCNC(=O)C[C@H]1C[C@@H]2c3cc(NS(C)(=O)=O)ccc3O[C@@H]2[C@@H](CO)O1 | inactive
